Reference: PubChem BioAssay AID1745853 (National Center for Advancing Translational Sciences (NCATS), 2022)
“And” between values parts separate entries of the source, which are not always exact repeats. Identical values can stand only once. Some of the results follow. The main result of the screen is listed elsewhere. These columns were measured beside it and carry no call.

Tests used:
Test in all cases: Primary Screen for Target Class Profiling of Small Molecule Inhibitors of Methyltransferases
[1] = molecular target: Glycine N-methyltransferase (Homo sapiens) (UniProt Q14749); conditions: purified enzyme, MTase-Glo SAH luminescence; measured here: GNMT inhibition; at 40 µM; stronger effect = lower value
In short: (§1)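 Each enzyme was assayed with SAM and its substrate. SAH formation detected by MTase-Glo luminescence; single-point 40 uM screen[…].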

[2] = molecular target: Guanidinoacetate N-methyltransferase (Homo sapiens) (UniProt Q14353); conditions: purified enzyme, MTase-Glo SAH luminescence; measured here: GAMT inhibition; at 40 µM; stronger effect = lower value
In short: as §1

[3] = molecular target: Histamine N-methyltransferase (Homo sapiens) (UniProt P50135); conditions: purified enzyme, MTase-Glo SAH luminescence; measured here: HNMT inhibition; at 40 µM; stronger effect = lower value
In short: as §1

[4] = molecular target: Nicotinamide N-methyltransferase (Homo sapiens) (UniProt P40261); conditions: purified enzyme, MTase-Glo SAH luminescence; measured here: NNMT inhibition; at 40 µM; stronger effect = lower value
In short: as §1

[5] = molecular target: Phenylethanolamine N-methyltransferase (Homo sapiens) (UniProt P11086); conditions: purified enzyme, MTase-Glo SAH luminescence; measured here: PNMT inhibition; at 40 µM; stronger effect = lower value
In short: as §1
On the % scale 0 is the no-effect control and ±100 the full control effect.

CC(C)[C@@H](C(=O)O)N1Cc2c(cc(O)c3c2O[C@]2(C3)[C@H](C)CCC3C(C)(C)[C@H](O)[C@H](O)C[C@@]32C)C1=O (stereo not given in full)
activity change, negative = inhibition [1]: -3.63% | activity change, negative = inhibition [2]: 6.16% | activity change, negative = inhibition [3]: -1.46% | activity change, negative = inhibition [4]: -8.06% | activity change, negative = inhibition [5]: 1.19%

CC(CC12CCCN1C(=O)C1CCCN1C2=O)OC(N)=O (stereo not given)
activity change, negative = inhibition [1]: 3.49% | activity change, negative = inhibition [2]: 6.85% | activity change, negative = inhibition [3]: 5.64% | activity change, negative = inhibition [4]: -6.94% | activity change, negative = inhibition [5]: 2.96%

CC(C)C[C@@H]1NC(=O)[C@@H](Cc2ccccc2)NC(=O)C(CCCCCC(=O)C2CO2)NC(=O)[C@@H]2CCCCN2C1=O (stereo not given in full)
activity change, negative = inhibition [1]: 2.17% | activity change, negative = inhibition [2]: -4.82% | activity change, negative = inhibition [3]: 13.5% | activity change, negative = inhibition [4]: -10% | activity change, negative = inhibition [5]: 1.71%

CC(C)CC(=O)OC1OC=C(CO[C@@H]2O[C@H](CO)[C@@H](O)[C@H](O)[C@H]2O)C2CC(O)C(O)(CO)C12 (stereo not given in full)
activity change, negative = inhibition [1]: -4.89% | activity change, negative = inhibition [2]: -0.298% | activity change, negative = inhibition [3]: -0.596% | activity change, negative = inhibition [4]: -11.6% | activity change, negative = inhibition [5]: 1.46%

CCOCC(=O)N1C[C@@H](CO)[C@H](c2ccccn2)C1
activity change, negative = inhibition [1]: -0.559% | activity change, negative = inhibition [2]: -3.8% | activity change, negative = inhibition [3]: 0.332% | activity change, negative = inhibition [4]: -1.78% | activity change, negative = inhibition [5]: 0.136%

CC1(C)C2CCC1(C)C(OC(=O)C(O)(CC(=O)O)CC(=O)O)C2 (stereo not given)
activity change, negative = inhibition [1]: -0.124% | activity change, negative = inhibition [2]: 1.55% | activity change, negative = inhibition [3]: 1.35% | activity change, negative = inhibition [4]: -10.7% | activity change, negative = inhibition [5]: 3.11%

CC1(C(=O)NCc2ccccc2)Cn2nc(-c3ccccc3)cc2C(=O)N1Cc1ccccc1 (stereo not given)
activity change, negative = inhibition [1]: 0.517% | activity change, negative = inhibition [2]: 1.07% | activity change, negative = inhibition [3]: 1.38% | activity change, negative = inhibition [4]: -3.48% | activity change, negative = inhibition [5]: 2.46%

CCN1C(=O)c2c(C(=O)NCc3cccc(Cl)c3)ncn2CC1(C)C(=O)NC1CCCC1 (stereo not given)
activity change, negative = inhibition [1]: -5.55% | activity change, negative = inhibition [2]: 3.67% | activity change, negative = inhibition [3]: -5.31% | activity change, negative = inhibition [4]: -5.8% | activity change, negative = inhibition [5]: -0.297%

Cn1c2c(c3ccccc31)C(C(=O)NCc1ccc(F)cc1)N(c1ccc(Cl)cc1)C(=O)CS2 (stereo not given)
activity change, negative = inhibition [1]: -3.72% | activity change, negative = inhibition [2]: 0% | activity change, negative = inhibition [3]: 2.29% | activity change, negative = inhibition [4]: 5.2% | activity change, negative = inhibition [5]: 4.83%

Cc1cc(C)n(Cc2ccc(C(=O)N3CCC(N4C[C@H](O)C[C@H]4C(=O)NC4CCCCC4)CC3)o2)n1
activity change, negative = inhibition [1]: -2.92% | activity change, negative = inhibition [2]: 0.13% | activity change, negative = inhibition [3]: 0.475% | activity change, negative = inhibition [4]: -5.81% | activity change, negative = inhibition [5]: 0.343%

COc1ccccc1NC(=O)Cn1nc2n(CCc3ccccc3)c(=O)c3ccccc3n2c1=O
activity change, negative = inhibition [1]: -1.24% | activity change, negative = inhibition [2]: 5.38% | activity change, negative = inhibition [3]: 1.6% | activity change, negative = inhibition [4]: 0.955% | activity change, negative = inhibition [5]: 2.51%

O=C(Nc1ccccc1Br)NC1CCN(c2ccc(C(F)(F)F)cn2)C1 (stereo not given)
activity change, negative = inhibition [1]: 1.87% | activity change, negative = inhibition [3]: 0.724%

CC1(C(=O)NC2CCCC2)Cn2c(cc3ccccc32)C(=O)N1c1ccc(CN2CCOCC2)cc1 (stereo not given)
activity change, negative = inhibition [1]: -0.189% | activity change, negative = inhibition [2]: -1.67% | activity change, negative = inhibition [3]: -3.11% | activity change, negative = inhibition [4]: 0.644% | activity change, negative = inhibition [5]: -2.11%

O=C(C1CCCN1[S+](=O)([O-])c1cccc(C(F)(F)F)c1)N1CCC(c2nc3ccncc3[nH]2)C1 (stereo not given)
activity change, negative = inhibition [1]: -6.95% | activity change, negative = inhibition [2]: -9.84% | activity change, negative = inhibition [3]: -8.93% | activity change, negative = inhibition [4]: -11.9% | activity change, negative = inhibition [5]: -5.44%

O=C(NC[C@H](O)CN1CCc2ccccc2C1)c1cc(NC2COC2)ncn1
activity change, negative = inhibition [1]: 1.26% | activity change, negative = inhibition [2]: 1.72% | activity change, negative = inhibition [3]: 6.28% | activity change, negative = inhibition [4]: -20.1% | activity change, negative = inhibition [5]: 2.16%

COc1cc2ncnc(Sc3nnc(C)s3)c2cc1OC
activity change, negative = inhibition [2]: 0.916% | activity change, negative = inhibition [4]: -12.7% | activity change, negative = inhibition [5]: -3.11%

COc1ccccc1CN1C(=O)c2cc3occc3n2CC1(C)C(=O)NC1CCC(C)CC1 (stereo not given)
activity change, negative = inhibition [1]: -0.903% | activity change, negative = inhibition [2]: -18.7% | activity change, negative = inhibition [3]: 5.35% | activity change, negative = inhibition [4]: 3.81% | activity change, negative = inhibition [5]: 0.484%

CN1CCc2c(n(Cc3ccc(C(=O)NO)cc3)c3ccccc23)C1
activity change, negative = inhibition [1]: -7.44% and -2.82% | activity change, negative = inhibition [2]: 5.54% | activity change, negative = inhibition [3]: -72.1% and -80.3% | activity change, negative = inhibition [4]: 1.47% and -8.33% | activity change, negative = inhibition [5]: 30.8% and 0.364%

CC(=O)OC1CC(O)(C(C)C)C2C(OC(=O)c3ccc(O)cc3)C=C(C)C(=O)CC12C (stereo not given)
activity change, negative = inhibition [1]: 3.45% | activity change, negative = inhibition [2]: 4.23% | activity change, negative = inhibition [3]: 6.66% | activity change, negative = inhibition [4]: -7.45% | activity change, negative = inhibition [5]: 6.14%

O=C(CCc1nnc2n(Cc3ccc(F)cc3)c(=O)c3ccccc3n12)Nc1cccc(Cl)c1
activity change, negative = inhibition [1]: -1.15% | activity change, negative = inhibition [2]: 0% | activity change, negative = inhibition [3]: 4.62% | activity change, negative = inhibition [4]: -8% | activity change, negative = inhibition [5]: -3.58%

Cc1nc2ccccc2n1CCNS(=O)(=O)c1ccc(Cl)cc1
activity change, negative = inhibition [1]: -5.75% | activity change, negative = inhibition [2]: 5.65% | activity change, negative = inhibition [3]: -2.84% | activity change, negative = inhibition [4]: 0.668% | activity change, negative = inhibition [5]: 3.86%

O=C(CC1CCCN(c2cn[nH]c(=O)c2)C1)N1CCCCCC1 (stereo not given)
activity change, negative = inhibition [1]: -2.87% | activity change, negative = inhibition [2]: -4.7% | activity change, negative = inhibition [3]: -5.63% | activity change, negative = inhibition [4]: -8.56% | activity change, negative = inhibition [5]: -2.34%

CCC1CCCCN1C(=O)Cn1c(=O)oc2cc(S(=O)(=O)N3CCCCC3)ccc21 (stereo not given)
activity change, negative = inhibition [1]: 2.06% | activity change, negative = inhibition [2]: 1.74% | activity change, negative = inhibition [3]: 1.04% | activity change, negative = inhibition [4]: 2.27% | activity change, negative = inhibition [5]: -0.92%

CN(C)C(=O)CCN1CCOC(CC(c2ccccc2)c2ccccc2)C1 (stereo not given)
activity change, negative = inhibition [1]: -5.89% | activity change, negative = inhibition [2]: -9.77% | activity change, negative = inhibition [3]: -4.62% | activity change, negative = inhibition [4]: -15.8% | activity change, negative = inhibition [5]: -12%

CCC(C(=O)NCc1cccc(Cl)c1)n1ccc2cc(S(=O)(=O)N3CCCCC3)ccc21 (stereo not given)
activity change, negative = inhibition [1]: 7.21% | activity change, negative = inhibition [2]: 0.386% | activity change, negative = inhibition [3]: 6.79% | activity change, negative = inhibition [4]: 4.37% | activity change, negative = inhibition [5]: 3.08%

OCCN1CCN(CC/C=C2/c3ccccc3Sc3ccc(C(F)(F)F)cc32)CC1
activity change, negative = inhibition [1]: -3.1% | activity change, negative = inhibition [2]: 8.23% | activity change, negative = inhibition [3]: -21.6% | activity change, negative = inhibition [4]: -38.6% | activity change, negative = inhibition [5]: 4.44%

Fc1ccc(-c2noc(-c3ncn4c3COC(c3ccccc3Cl)C4)n2)cc1 (stereo not given)
activity change, negative = inhibition [1]: -7.83% | activity change, negative = inhibition [2]: -4.53% | activity change, negative = inhibition [3]: -5.45% | activity change, negative = inhibition [4]: -2.11% | activity change, negative = inhibition [5]: -4.92%

O=C(Nc1ccc(Cl)cc1)c1nc2c(o1)CCN(Cc1ccncc1)CC2
activity change, negative = inhibition [1]: -18.2% | activity change, negative = inhibition [2]: -7.37% | activity change, negative = inhibition [3]: -19.2% | activity change, negative = inhibition [4]: -10.5% | activity change, negative = inhibition [5]: -10.3%

OC(c1ccccc1)c1nc(Nc2ccc3c(c2)OCO3)n[nH]1 (stereo not given)
activity change, negative = inhibition [1]: -24.5% | activity change, negative = inhibition [2]: -14.4% | activity change, negative = inhibition [3]: -6.95% | activity change, negative = inhibition [4]: -20.4% | activity change, negative = inhibition [5]: -27.1%

CC(C)(O)[C@@H]1CC[C@]2(CO)[C@@H](O)CC[C@](C)(O)[C@H]2[C@@H]1O[C@@H]1O[C@H](CO)[C@@H](O)[C@H](O)[C@H]1O
activity change, negative = inhibition [1]: -1.54% | activity change, negative = inhibition [2]: -0.255% | activity change, negative = inhibition [3]: 7.19% | activity change, negative = inhibition [4]: -14.7% | activity change, negative = inhibition [5]: -9.79%
